In all, about 33,000 sequences were measured (“E-score (-0.5 to 0.5)”: median about -0.043, highest 2% from about 0.37 on). Some of the results follow.
Target: T1, Upc2 (UniProt Q12151)
T1 sequence: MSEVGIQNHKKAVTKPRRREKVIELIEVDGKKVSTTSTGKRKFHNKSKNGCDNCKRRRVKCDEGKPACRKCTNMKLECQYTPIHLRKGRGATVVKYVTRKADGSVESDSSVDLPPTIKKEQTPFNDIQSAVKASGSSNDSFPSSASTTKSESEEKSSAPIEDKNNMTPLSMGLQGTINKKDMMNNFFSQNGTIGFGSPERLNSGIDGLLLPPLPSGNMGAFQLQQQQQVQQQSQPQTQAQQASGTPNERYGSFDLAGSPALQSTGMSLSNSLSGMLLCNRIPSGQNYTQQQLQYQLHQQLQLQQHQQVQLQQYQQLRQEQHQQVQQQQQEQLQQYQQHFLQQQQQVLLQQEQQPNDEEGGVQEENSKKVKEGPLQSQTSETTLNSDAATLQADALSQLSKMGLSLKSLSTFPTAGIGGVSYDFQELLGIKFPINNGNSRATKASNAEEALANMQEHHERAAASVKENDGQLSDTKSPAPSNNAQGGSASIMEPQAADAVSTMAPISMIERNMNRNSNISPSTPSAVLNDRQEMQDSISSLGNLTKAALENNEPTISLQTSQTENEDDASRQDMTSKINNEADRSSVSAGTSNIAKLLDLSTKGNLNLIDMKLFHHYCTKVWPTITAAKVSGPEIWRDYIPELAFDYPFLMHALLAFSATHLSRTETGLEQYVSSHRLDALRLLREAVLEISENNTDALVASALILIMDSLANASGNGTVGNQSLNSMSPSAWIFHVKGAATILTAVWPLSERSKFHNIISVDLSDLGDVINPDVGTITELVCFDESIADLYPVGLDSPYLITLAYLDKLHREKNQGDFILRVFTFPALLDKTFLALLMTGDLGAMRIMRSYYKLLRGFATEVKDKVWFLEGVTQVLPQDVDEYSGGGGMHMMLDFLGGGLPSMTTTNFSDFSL
Assay: PBM E-score (8-mer binding enrichment) (E-score (-0.5 to 0.5)); higher = stronger / more preferred TF binding; most listed sequences are background and not binding sites
Conditions: protein concentration: 200 nM; construct: GST-full length
Protocol: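 Universal 'all 10-mer' protein binding microarrays (Agilent AMADID 015681) probed with GST-tagged S. cerevisiae TFs (full-length or DBD) made by in vitro transcription/translation (PURExpress), about 100-200 nM. Bound TF was detected with fluorescent anti-GST. Each ungapped 8-mer (which stands for itself and its reverse complement) is scored by the PBM enrichment score (E-score), a modified Wilcoxon-Mann-Whitney statistic from -0.5 to +0.5, computed with the Universal PBM Analysis Suite. Scale: above 0.35 generally sequence-specific binding.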

Row | Sequence | PBM E-score
1 | ACGTAATG | 0.0828
2 | CTGTCTCA | -0.149
3 | CAATATCC | -0.0571
4 | CCGGCTCC | -0.0858
5 | AGGGCCAC | -0.0238
6 | AGTGCGGA | 0.0998
7 | GCGTTTTA | 0.206
8 | CACGATAC | 0.197
9 | AATTAAAT | -0.182
10 | CAGCCGAG | -0.115
11 | CCATTTCC | -0.129
12 | AGACTCCA | -0.0995
13 | AAGTACCA | 0.136
14 | TATAGGCA | -0.0232
15 | TAGTTGAA | 0.0322
16 | TCACGCCA | -0.044
17 | GTCCAAGA | -0.308
18 | AATAATAA | 0.0771
19 | CGTCCACC | -0.188
20 | AAAACAAT | -0.0771
21 | CTCTCAAA | 0.0587
22 | AAGCTGGT | -0.0392
23 | TGAAGCCA | -0.068
24 | ATAACAGC | -0.0133
25 | CCACGTTC | 0.0171

Row | Sequence | PBM E-score
26 | ATTGCTTG | -0.0878
27 | GGTAAGGA | -0.19
28 | GCGAGCGC | 0.0844
29 | GCACTCAC | -0.117
30 | GGCTTAAA | 0.113
31 | CATTGGGC | -0.0682
32 | ATCCTTCA | 0.0106
33 | GACTTCAC | -0.0993
34 | TCTAGAGA | -0.274
35 | CGTATTAG | 0.353
36 | AAAAGGTT | -0.118
37 | ATTCATCC | -0.0145
38 | AGATAGTC | -0.0153
39 | CCATAATA | -0.0867
40 | CCCTGAGG | -0.181
41 | CAGTGATC | -0.128
42 | CGTGACCC | 0.0582
43 | AGTGGCCG | -0.212
44 | CCCATCGC | -0.0313
45 | GTTTCTTA | 0.132
46 | GAATTACA | 0.0129
47 | GCGGGAAA | 0.126
48 | ATGTCGGA | 0.0657
49 | GGCTGAAA | -0.045
50 | CTCTCGCC | -0.112

Row | Sequence | PBM E-score
51 | AGATCGAA | -0.102
52 | ACCGTCCT | -0.207
53 | AAATTGGA | -0.0431
54 | ACCAGGTA | -0.0537
55 | AACGATTG | 0.391
56 | AGGTAGTG | -0.00444
57 | CCTTGGAG | -0.122
58 | ACGGTTAT | 0.329
59 | CAATGAGA | -0.156
60 | CACACGTA | 0.0642
61 | CCGTTGCG | 0.173
62 | CGGAGGGA | -0.178
63 | GAGAAACA | -0.0828
64 | GAGTGTGA | 0.156
65 | CGGCCAAC | -0.0371
66 | ATCCCTAA | -0.132
67 | GCAGCGGC | -0.0934
68 | AAAGCCGC | 0.0199
69 | CGCAAAGC | 0.188
70 | ACGAGGGA | 0.364
71 | CTCCGAAA | -0.108
72 | GAGATGGA | -0.151
73 | CAAGAACA | 0.00235
74 | ATCTCCGC | -0.17
75 | GGTATGTA | -0.116

Row | Sequence | PBM E-score
76 | CCACTTGC | -0.312
77 | ACCCATCT | -0.0321
78 | CGACTCGA | 0.0612
79 | AAATGAAA | 0.189
80 | AGGCTTAA | -0.0508
81 | CGTCGGAA | 0.107
82 | AGGAACCT | -0.121
83 | ATGTTATA | 0.158
84 | ATAGGCAA | -0.149
85 | ACTCGCTC | 0.231
86 | GACTGTGA | -0.208
87 | AGCCCATA | -0.137
88 | CTAGATGC | -0.229
89 | AGGATTCC | -0.263
90 | GGCCGCCA | -0.268
91 | CCATCTCC | -0.0952
92 | AGCTCTTA | 0.0489
93 | CCGCGTTA | 0.144
94 | ATCCAGTG | -0.28
95 | GCGCTCGA | 0.0495
96 | TAATTCTA | 0.114
97 | CTCCTGGA | -0.243
98 | GCCGGACA | -0.0784
99 | ACGTCGGG | 0.187
100 | GATTAGGA | -0.00353

Row | Sequence | PBM E-score
101 | CTCAGGAA | -0.135
102 | AGTTTAAG | 0.0878
103 | CTGAGACA | -0.143
104 | TTAAGCAA | 0.00404
105 | GGTGACAA | -0.0338
106 | GCATCACC | -0.29
107 | TTCCTAAA | -0.119
108 | AGGTGAGG | -0.0489
109 | CCCGGCAA | -0.034
110 | GCCCTGCC | -0.129
111 | AGAAGTCC | 0.0121
112 | CTGAACGC | 0.121
113 | CAATACGC | 0.0949
114 | CCGGCCGG | 0.125
115 | AGGTATTA | -0.0679
116 | ACTACTAG | -0.131
117 | GCTTGCCA | 0.017
118 | AGCGCGCT | 0.178
119 | TCGGCGAA | -0.0272
120 | ACTCTAAA | -0.00671
121 | CTGAAGTC | 0.05
122 | CATAATCG | 0.141
123 | ATTAAGTC | -0.114
124 | CTACCGCA | -0.234
125 | AAGAGGTG | 0.0382

Row | Sequence | PBM E-score
126 | ATATCGGG | -0.061
127 | AATGAAGT | -0.0664
128 | TCAAATGA | -0.274
129 | GCATACAA | -0.0164
130 | AACGGGAA | 0.229
131 | ACGTGTAG | 0.0435
132 | ACCACGTG | 0.0941
133 | GCATCCCC | 0.00972
134 | GGACTCTA | -0.182
135 | ACGGCGAG | 0.185
136 | TCCTAAGA | -0.156
137 | ATATGATG | -0.22
138 | GTTGTAAA | -0.0684
139 | AGGGCAGC | -0.171
140 | AAACATGG | -0.13
141 | ATGCACAA | 0.00244
142 | ACCAGCGC | 0.0181
143 | GCTTGATA | -0.162
144 | GAATAAAA | 0.193
145 | AGTCACCC | -0.184
146 | CGTCGGTA | 0.138
147 | TGATTCAA | -0.0458
148 | CACATGGA | -0.202
149 | ATGAATAC | 0.124
150 | TCGCCCAA | -0.00958

Row | Sequence | PBM E-score
151 | CAACCGGG | -0.166
152 | TGTGATAA | -0.0434
153 | AAGTGCAA | -0.0117
154 | ATGAGGAC | -0.149
155 | GCCATCGC | -0.184
156 | CGTTTGCC | 0.323
157 | AGATAATG | 0.0805
158 | ATTATTAA | -0.117
159 | CACGCCGG | -0.183
160 | TGAAAAAA | 0.0284
161 | ACAATCGA | 0.0489
162 | ACGCGCGG | 0.0993
163 | CTCATAGA | -0.132
164 | TATACTGA | 0.263
165 | ACAAAGTG | -0.111
166 | CGAGTCGC | 0.159
167 | AAGCGCAT | 0.0677
168 | ACCAATTA | -0.0776
169 | GACAACAC | 0.187
170 | CCCCCCTC | -0.0916
171 | TATAGTAA | 0.15
172 | TAGTACGA | 0.401
173 | TATTACCA | 0.0142
174 | CTCCTAGC | -0.256
175 | ACGAATAG | 0.335

Row | Sequence | PBM E-score
176 | CCAGTAGG | -0.233
177 | ACTCTCCG | 0.0605
178 | TCCCGCAA | -0.0767
179 | CGTGACGA | 0.0729
180 | ACACTACA | 0.0722
181 | ACGGAGGC | 0.0956
182 | GGAGTTGA | 0.00563
183 | GATCACGC | -0.101
184 | GGCGTTCA | 0.0581
185 | ACCTAAAA | 0.107
186 | ACCCACTG | -0.107
187 | CAGTACCC | -0.0567
188 | TCAGGACA | -0.0425
189 | CGCGTCTC | 0.123
190 | CATCGCAC | 0.12
191 | GACCGTTA | 0.118
192 | GCGGTAGA | -0.0562
193 | TATACAGA | 0.236
194 | CGCATACA | 0.114
195 | ACTCTTAT | 0.144
196 | CGGCGTTC | 0.163
197 | GCGGAATA | -0.0629
198 | GCATGAAC | -0.00105
199 | CAAGACGG | -0.255
200 | ACCGAATA | 0.0988

Row | Sequence | PBM E-score
201 | GTCCCGGA | 0.0334
202 | ACCATCGT | 0.276
203 | CAGATGGG | -0.318
204 | CACCATGC | -0.295
205 | GAGTTTTA | 0.117
206 | AGCACAAA | -0.0797
207 | CCTAGTAG | -0.148
208 | ATTGATAA | -0.149
209 | CCCGACGA | 0.0367
210 | CCTGGTAA | -0.0883
211 | GAGCTTTA | 0.117
212 | GCGGGACC | -0.18
213 | TAGACGGA | -0.0125
214 | AAGCTGCT | -0.179
215 | ACACGTAG | -0.234
216 | CCTCGAGA | -0.0146
217 | ACCTCACT | -0.171
218 | ACACATAA | 0.104
219 | CCCCTTAA | -0.267

— the supplement of paper PMC3334620
